The values that follow come from the RNAGym collection of RNA variant scans (doi:10.1093/nar/gkz1192).

To fix the notation:
B1: CPEB3 Ribozyme (parent)
chain: UAACAGGGGGCCACAGCAGAAGCGUUCACGUCGCAGCCCCUGUCAGAUUCUGGUGAAUCUGCGAAUUCUGCUGUAUAUCUC

Read counts are not given, so values of variants with three or more changes are uncertain.

In the series the parent is B1. Put plainly: self-cleavage, relative activity (ratio to wild type); higher = more cleavage; in vitro, sequencing. In outline: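 Relative activity compares each variant's cleaved/total read fraction with that of the unmutated ribozyme. To get these fractions, barcoded CPEB3 ribozyme libraries from rounds of error-prone PCR were transcribed with T7 RNA polymerase for 5 hours at 37°C and then given 15 min of DNase I treatment before EDTA was added. The RNAs were reverse transcribed with template switching and sequenced on Illumina, and DNA sequencing linked barcodes to variants. A minimum of 5 reads applied, and three batches were averaged.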
For the variant U31C U43C G46A A47G U49C U78C, the self-cleavage turned out to be 0.11.
For A35G U54C U69C U76C U80A, the self-cleavage amounted to 1.13.
As to G33A U41C U60A U78C, the self-cleavage was 0.2.
The same measure for G33U A45G U49C: 0.08; for U31C U48C A56G U67C: 0.14; for A35G U41C A56G A64U A65G U69C U80C: 0.45.
For the variant U31A U54A U78C, the self-cleavage worked out at 0.44.
For A35G A45U A57G A65G A75G the value was 0.34; for A35G U48C U78A, 0.8; for A35G C37G U41C C59A U69A, 0.13.
For G33U U43C A75G the value was 0.41.
The same measure for U31G U51C U54C: 0.78; for U31C U58C A64G: 0.12; for A35G C39U U41C U54G A57U: 1.13.
As to A35G A57G U58C U72C, the self-cleavage came to 0.53.
In the case of C34G U43A A45G U48C A64G U67C U74A, the self-cleavage stood at 0.05.
With C32U A35G C37A, the self-cleavage was found to be 0.14.
The same measure for C32G A45U U49C U51C: 0.18.
For U31A U60C U74C the value was 0.44; for A35G U51G U58C U78A, 1.11.
For G33U U41A A57G U80A the value was 0.23; for U31A U43C U72A U78A, 0.11; for G33A U41C U51A U67C, 0.09.
With A35C A45G U49A U67A U78A, the self-cleavage was 0.08.
The same measure for A35G G63A U69C U72C: 0.74.
The same measure for A35C U43C A47U U76C: 0.12; for G33C A35G U51A: 0.1; for G33A U43A U58C U66C: 0.08.
For A35G A56G U60A U74A the value was 1.18.
For U31C U43C U66C A75U, the self-cleavage is 0.08.
A35G U49C G55A U66A U74A: the self-cleavage is 0.45.
On to A35G A45G A64U U78A, for which the self-cleavage came out at 0.62.
Regarding C32A U43A U72A, the self-cleavage turned out to be 0.26.
The same measure for U31C A57U U72A: 0.11; for U31C U51C A65U: 0.26; for G33U A47U A56U: 0.06.
Turning to U31C U48C C68U, the self-cleavage is 0.65.
The same measure for A35G A47G U72G U74G U76C: 1.31; for U31C U67A C79U: 0.39; for U31C C37A U48C U60G U74A: 0.08.
For the variant U31C C68A U78C, the self-cleavage came out at 0.42.
For C32A U74C U78C the value was 0.3.
As to G33A A47G U72C C81U, the self-cleavage stood at 0.08.
The same measure for U31C A45C U78C: 0.19.
For A35G A65U U74A the value was 0.94.
For A35G G63U A65G the value was 1.25; for A35G U41C A56C, 1.24.
With U31A U51A U72C U80A, the self-cleavage amounted to 0.51.
For G33A G36A A56U A64G the value was 0.14.
For the variant A35G A56U A57G U80C, the self-cleavage is 1.23.
The same measure for C32U U41C A77U U80C: 0.3.
For U31C U49C U58C the value was 0.14; for C34G U43C U51C U80C, 0.37; for U31G U51A U69A A75U, 0.12.
With C34G U41C U43A U69G U72G, the self-cleavage amounted to 0.16.
For U31C U41A U49C U54C U67C the value was 0.06; for C34G U43C C62A U72A, 0.15; for U31C C39U U78C, 0.37.
The same measure for A35G C68U U72C: 1.21; for U31C U58C U74C A75U: 0.76.
For the variant A35G U54A U69A, the self-cleavage was determined as 1.23.
The same measure for G33A A45G U72C: 0.03; for A35G C39U G46A A64G: 0.43; for A35C U67C G70U: 0.26.
The same measure for U31C A47G U49C A57G A77C: 0.05.
For G33A A35G U41A the value was 0.07; for U31C G33A U41A C71A, 0.11; for A35G U49A U72C, 1.08.
As to U31G A57G U80C, the self-cleavage turned out to be 0.55.
The same measure for U31A U41G U54C: 0.23.
For U31C A35U U43C U49C the value was 0.08.
The same measure for A35G U49C U80A: 0.93; for C34U A56G U60C U69C U78C: 0.04.
U31C U49C A56G A57U A77G: the self-cleavage is 0.19.
For U31A U41C U69C C79U the value was 0.25.
The same measure for G33A A47G U51C: 0.2; for A35G U48C U76C: 1.23; for U31C C32U C38G: 0.11.
Take G33A U43A U54A A56C A57G: the self-cleavage turned out to be 0.23.
Consider C32U U60A U80C, for which the self-cleavage amounted to 0.29.
Regarding C34A U76C C79A, the self-cleavage was 0.28.
For C32U G52A U60C the value was 0.18.
The same measure for U31C A47G A56G G73C U76C: 1.21.
For A35G U41A A45U U78G the value was 0.1; for G33U C38U U48A U54A A56G A65G, 0.06.
As to A35G U43C G53A U69C, the self-cleavage turned out to be 0.97.
The same measure for C32G A64G U69C U74C: 0.11; for U31C C40U U69G U76C: 0.13; for A35G U49C U54C: 1.03.
For A35G U41A G42U U54C U60A the value was 0.14; for U31A U43C U48C U51A, 0.09; for A35G U51C A56U, 1.27.
The same measure for U31A U49C C62A A64U: 0.14; for U31C A35G U48A U54A U76C: 1.02.
In the case of U31C A47G C50U U58C U76A, the self-cleavage is 0.95.
The same measure for U31C U74C U80A: 1.14; for A35G C68G U69C C79A: 0.99.
For U31A U41C U60A A65U U66G U69C the value was 0.15; for C32A U48C C68G U76A, 0.04; for G33A C38U A64G, 0.08.
For U31C A45G G52A A56U the value was 0.27; for C32U A56G A64U U80A, 0.1.
For the variant U31C A64G U74A, the self-cleavage is 0.81.
The same measure for U31C A65G U67C: 0.35; for A35G U49C U54C U60C: 0.31; for C32U C37U G52A U54C A77C: 0.09.
The same measure for A35G C38U U72C: 1.45.
For G33C G46A C50U U80C the value was 0.4; for A35G C37G U66C, 0.16; for G33A U66C U80A, 0.43.
As to U31C U60C U78C, the self-cleavage was 0.34.
Consider G33A C38A U67A U80A, for which the self-cleavage worked out at 0.06.
The same measure for G33C U43A U54C U67A U76C U80C: 0.16; for A35G U48A A75U: 1.13; for U31C A35U U76A U80C: 0.36.
For G33A U41C U80C the value was 0.35.
The same measure for U31A U43C U60C U72G: 0.15; for U31C U43A A57C U60C A64G: 0.11; for A35G A64U U67G U72A: 0.25.
On to U31C C40A U51C, for which the self-cleavage worked out at 0.09.
For U31C A47G U49G U72C U78C the value was 0.1; for C34U A35G A64U, 0.1; for A35G A45G U49C U54C U67A, 0.22.
For G33C U54C A56G the value was 0.16; for A35G A45G U49C, 0.34; for G33U G63U U67C A77G, 0.09.
Consider U31C C40A U60A, for which the self-cleavage was 0.19.
On to A35G U43C A56G U60C U69A A75G, for which the self-cleavage was 0.14.
For C34U U54G A57G U67C U72A the value was 0.09; for C32A C59U U74C, 0.14.
As for A35G U51A U58C C62A, the self-cleavage turned out to be 0.59.
For U31C U43C U69C U76G the value was 0.1; for G33U U41A U51A, 0.12; for A35C U41C A47G U54G A65G G73U U76A, 0.25.
The same measure for A35G A45G U72C: 1.31; for G33A A45G U60A G61A U76A: 0.08.
The same measure for U31C C34A A45U U60C U66C: 0.16.
U31G U51C A56G U60C: the self-cleavage came to 0.15.
The same measure for U31C U49C G70A U72C: 0.36.
For U31C A35U U48C the value was 0.39.
Turning to C32A U43C U66C U74C, the self-cleavage turned out to be 0.13.
For U31C U41A U54C U78C the value was 0.19; for G33U C37G U80C, 0.4.
For U31C U43A U51C U58C the value was 0.31; for A35G C50U A75G U78C, 1.47.
Turning to C32A A47G C59G U60C, the self-cleavage came out at 0.1.
As for A35G U54C A75G, the self-cleavage amounted to 1.29.
The same measure for U31C U51A U66C: 0.23.
As for U31G U41A U48C A57U U67C U69A, the self-cleavage is 0.12.
For A35G U41C U60C U76A the value was 1.08; for A35G U54G U67C, 0.63.
Turning to C32U C44U A75U, the self-cleavage stood at 0.11.
For A35G A45G U69A U78C the value was 1.19; for G33U A35G U49A U76A, 0.08; for U31C U54A U78C, 0.92.
The same measure for A35C U51C U58C: 0.41; for C32U U41C U49C A77G: 0.08; for A35G A45G U48C: 1.19.
The same measure for A35G U41A U43C U72C: 0.16; for U31A U41C A56G: 0.35; for U31C U72C U78A: 0.73.
As to U31C C32U A35U U41C U66C U76G, the self-cleavage was determined as 0.09.
For U31C A64G U69C the value was 0.27.
C34A A35U U58A U72A: the self-cleavage amounted to 0.13.
For U31C U41A A56G A64G U69G the value was 0.17.
For U31C U69A C81U the value was 0.45.
The same measure for G33C U67A U74C: 0.21.
